About 65 (0.1%) of roughly 45,000 compounds were called active. The call rests on the fitted dose curve; in most records, active means well fitted activation curve with a large enough effect; inconclusive means small, poorly fitted or top-dose-only effect; inactive means no such curve, though single readings can be large or run the other way. This is one part of the list.

48 molecules from PubChem BioAssay AID1159614 (National Center for Advancing Translational Sciences (NCATS), 2016) can be followed below.

This test addresses Galactocerebrosidase (Homo sapiens) (UniProt P54803). In words: A Novel Cell-Based Assay to Identify Small Molecules for B -Galactocerebrosidase. Further: 0% is about no effect; nearly all actives have a fitted effect of over 65% in size. The settings on record: 145M-Twi-hGALC-G270D cells (Twitcher mouse brain line with human GALC G270D), HMU-beta-Gal fluorescence, 48 h; series mostly up to 57.5 µM; activation: at the top concentration. An outline of the steps: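 Fluorescence readout: HMU-β-gal cleavage by mutant GALC (0.1 mM final, citrate/phosphate pH 5.2 with 1 mg/mL taurocholate), stopped with carbonate/bicarbonate plus Triton X-100. Cells: murine Twitcher 145M-Twi expressing human G270D GALC; qHTS for activators.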
UniProt P54803, sequence (P54803 whole entry, looked up): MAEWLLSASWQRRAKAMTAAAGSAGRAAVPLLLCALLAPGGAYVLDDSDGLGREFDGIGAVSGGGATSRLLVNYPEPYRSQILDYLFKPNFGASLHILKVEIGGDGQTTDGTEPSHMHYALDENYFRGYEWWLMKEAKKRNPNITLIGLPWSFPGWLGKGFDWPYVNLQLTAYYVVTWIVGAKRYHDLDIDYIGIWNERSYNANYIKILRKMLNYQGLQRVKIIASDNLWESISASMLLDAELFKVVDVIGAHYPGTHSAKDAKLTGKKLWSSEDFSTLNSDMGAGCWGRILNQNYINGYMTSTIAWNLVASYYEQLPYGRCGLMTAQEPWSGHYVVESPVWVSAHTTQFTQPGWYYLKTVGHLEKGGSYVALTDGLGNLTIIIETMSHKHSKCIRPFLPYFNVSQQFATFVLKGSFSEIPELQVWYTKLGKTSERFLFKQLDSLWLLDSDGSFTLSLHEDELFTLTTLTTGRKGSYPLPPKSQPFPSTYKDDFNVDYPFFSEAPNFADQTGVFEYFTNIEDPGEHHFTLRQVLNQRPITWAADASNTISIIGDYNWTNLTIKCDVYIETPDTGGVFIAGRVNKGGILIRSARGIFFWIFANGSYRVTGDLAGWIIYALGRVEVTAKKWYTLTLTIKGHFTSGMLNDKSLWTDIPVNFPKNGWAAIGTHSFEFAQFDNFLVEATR
In the case of `Cc1ccc(NC(=O)C2CCCN2S(=O)(=O)c2ccc3c(c2)n(C)c(=O)c(=O)n3C)cc1` (stereo not drawn), the “activation” value is inactive: -9.58%.
As for `Cc1nc2nc(SCC(=O)NCCc3ccc(Cl)cc3)nn2c(C)c1Cc1c(F)cccc1Cl`, the figure is inactive: -12.6%; as for `CCOCCCNC(=O)CCC(=O)NNc1nc2ccccc2c2nc(C)nn12`, inactive: -5.49%; as for `Cc1nn(CCC(=O)Nc2cccc(C#N)c2)c(C)c1S(=O)(=O)N1CCC(C)CC1`, inactive: -1.26%.
On to `COC(=O)c1ccccc1NC(=O)Cc1nc(-c2ccc(OC)cc2)no1`, for which the “activation” value was inactive: -3.93%.
Next, `COc1ccc(-n2cnc3cc(C(=O)NCCC4=CCCCC4)ccc32)cc1`: inactive: -13.3%; `O=C(CSc1nc2ccccc2n1Cc1cccc(C(F)(F)F)c1)NCc1ccccc1`: inactive: -8.71%.
As for `Cc1cc(C)cc(NC(=O)Cn2c(C)cc(C)c(C#N)c2=O)c1`, the figure is inactive: -9.33%; as for `CCOc1cccc(C2Oc3nc(SC)nnc3-c3ccccc3N2C(C)=O)c1OC` (stereo not drawn), inactive: -18.7%; as for `CC(=O)Nc1ccc(NC(=O)c2c(-c3ccccc3)noc2C)cc1`, inactive: 2.75%.
Take `O=C(O)c1ccc(CSc2nc3cccnc3n2Cc2cccc(F)c2)cc1`: the “activation” value was inactive: -5.65%.
Regarding `CCCOc1ccc(C(=O)Nc2cccc(NC(=O)c3ccc(Cl)cc3Cl)c2)cc1`, the “activation” value was inactive: -18.7%.
Turning to `Cc1nn(CC(=O)NCc2ccco2)c(=O)c2nn(-c3ccccc3)c(C)c12`, the “activation” value is inactive: -5.86%.
Turning to `CC(=O)N1CCc2cc(CNS(=O)(=O)c3ccccc3C(F)(F)F)ccc21`, the “activation” value is inactive: -9.22%.
Next, `COc1cc(NC(=O)CSc2ccc(-c3sc(C)nc3C)nn2)cc(OC)c1`: inactive: -10.3%; `Cc1ccc(S(=O)(=O)C(CNC(=O)C(=O)NCCc2ccc(F)cc2)c2cccs2)cc1` (stereo not drawn): inactive: -6.41%; `O=C(CSc1nc2c([nH]c3ccccc32)c(=O)n1-c1ccc(F)cc1)Nc1ccc2c(c1)OCO2`: inactive: -4.54%.
As to `COc1ccc(N2CCN(C(=O)c3ccc(CS(=O)c4cccc(C)c4)o3)CC2)cc1` (stereo not drawn), the “activation” value is inactive: -5.99%.
For the molecule `COc1ccc(Cl)cc1NC(=O)c1oc2ccc(S(=O)(=O)N3CCCCC3)cc2c1C`, the “activation” value is inactive: -9.6%.
Next, `Nc1ncc(S(=O)(=O)N2CCN(c3ccccc3)CC2)cn1`: inactive: -10.3%.
As for `COC(=O)CC1Oc2ccc(Cl)cc2-n2cc(-c3ccc(C)cc3)nc21` (stereo not drawn), the “activation” value was inactive: 16.2%.
Next, `COc1ccc(CCNC(=O)c2c3c(nc4ccccc24)C(=O)N(C2CCCCC2)C3)cc1OC`: inactive: -11.9%; `O=C(COc1ccc(F)cc1)NCc1ccc2c(c1)CCN2C(=O)c1ccc(F)cc1`: inactive: -19%.
Next, `Cc1ccc(C)c(N2CCN(c3nc4ccccc4n4nnnc34)CC2)c1`: inactive: -4.34%; `O=C(Nc1ccc(F)c(Cl)c1)C1CCN(c2ncccn2)CC1`: inactive: -10.5%; `Oc1c(C(c2cccc(Cl)c2)N2CCOCC2)sc2nc(-c3ccco3)nn12` (stereo not drawn): inactive: 1.6%.
As for `CCN1c2ccccc2-c2nc(SCC(=O)Nc3cc(C)c(Cl)cc3OC)ncc2S1(=O)=O`, the figure is inactive: -15.9%; as for `COC(=O)c1ccccc1NC(=O)C1CCCN(C(=O)c2cnn(-c3ccc(F)cc3)c2-n2cccc2)C1` (stereo not drawn), inactive: -37.7%.
As for `Cc1cc(Br)cc(C)c1OCC(=O)Nc1ccc(S(=O)(=O)Nc2ncccn2)cc1`, the “activation” value is inactive: 3.72%.
Next, `COCCn1c(=O)[nH]c2cc(C(=O)N3CCN(c4ccc(F)cc4)CC3)ccc2c1=O`: inactive: -8.26%.
Regarding `Cc1cccc(OCC(=O)Nc2ccc(S(=O)(=O)N(Cc3ccccc3)c3ccccc3)cc2)c1`, the “activation” value is inactive: -16.5%.
With `Cc1cc(-n2c(C)nc3ccccc3c2=O)ccc1NC(=O)c1cccc([N+](=O)[O-])c1C`, the “activation” value was inactive: -16.2%.
Next, `CCOCCc1nn2c(=O)cc(COC(=O)c3ccccc3Br)nc2s1`: inactive: -9.05%; `O=C(NCCc1csc(-c2ccc(C(F)(F)F)cc2)n1)c1ccccc1Cl`: inactive: -12.6%; `Cc1ccc(-n2ncc3c(N4CCN(Cc5ccccc5)CC4)ncnc32)cc1C`: inactive: -12.3%.
`N#C/C(=C\c1ccc(-c2ccc(Br)cc2)o1)C(=O)Nc1ccccc1O`: the “activation” value is inactive: -6.29%.
As to `Cc1oc(-c2ccccc2F)nc1Cn1c(SCc2cccc(Cl)c2)nc2ccncc21`, the “activation” value is inactive: -15.5%.
As for `CCCn1c(=N)c(C(=O)NCc2ccccc2)cc2c(=O)n3cccc(C)c3nc21`, the figure is inactive: 27.5%; as for `Cc1ccc(CNC(=O)C(=O)NCC(c2cccs2)S(=O)(=O)c2ccccc2)cc1` (stereo not drawn), inactive: -10.7%; as for `O=c1n(Cc2ccc([N+](=O)[O-])cc2)c2ccccc2c2nc(-c3ccccc3)nn12`, inactive: -5.15%.
As to `Cc1ccc(NC(=O)N(Cc2c[nH]c3ccccc23)C2CCCCCC2)cc1C`, the “activation” value is inactive: 3.07%.
With `O=C(CS(=O)(=O)c1ccc(Cl)cc1)Nc1nc2ccc(Br)cc2s1`, the “activation” value is inactive: -18.9%.
As for `COc1ccc(CCNC(=O)CCN2N=C(c3ccccc3)CCC2=O)cc1OC`, the “activation” value is inactive: -10.8%.
Next, `Cc1ccc(C(=O)N2CCc3cc(CNC(=O)c4ccccc4F)ccc32)cc1`: inactive: -7.13%.
As for `Cn1c(=O)n(C)c2cc(CNCc3ccc(F)cc3)ccc21`, the figure is inactive: -11.9%; as for `CCOc1ccc(C2=C(C(C)=O)Sc3nnc(C)n3N2C(C)=O)cc1`, inactive: -17.9%; as for `Cc1c(NC(=O)Nc2ccccc2C(F)(F)F)c(=O)n(-c2ccccc2)n1C`, inactive: -14.7%.
Next, `Cc1cc(C)cc(-n2c(SCC(=O)Nc3ccccc3F)nc3c(oc4ccccc43)c2=O)c1`: inactive: -4.58%.
